The labels stand for the following.
B1: OR4K15 (parent)
chain: GUUAACGGUCAUAGGCCAUGGAAACUAGGAGCACCAUUUCGCUGCCAGUGAAGAAAUGAACAAAGAAAAUCUGGGCCAGGCAGGCAUCAAAAGAAAUAGUCUUGCGCUCAACCAGAAAGUCUGUAAUCAUUUUAAGGGUA

The source gives no read counts; variants with many changes may rest on few reads.

The variants in the series derive from B1. The experiment in a line: self-cleavage, relative activity (ratio to wild type); higher = more cleavage; in vitro, sequencing; the parent is a self-cleaving ribozyme.
On to A33G A62G A111G, for which the self-cleavage turned out to be 0.02.

As for C32U U38C A95G G106A U127A U139C, the self-cleavage was found to be 0.01.

For the variant A33U U108C U132C, the self-cleavage is 0.

On to A33G U103A A111G, for which the self-cleavage is 0.02.

Take A33G U57C A95G A118G: the self-cleavage amounted to 0.45.

For A36G U39C U57C A90G U130C, the self-cleavage was determined as 0.41.

For the variant A33G A56G A62G A68G A92G A117G U122A A125U, the self-cleavage amounted to 0.39.

A36U A51G A91C: the self-cleavage amounted to 1.96.

Regarding A33U A67G U108C A111U A126U, the self-cleavage came out at 0.

Take A36G U37C U120C G138C: the self-cleavage is 0.32.

For A33U A56G A117G, the self-cleavage was determined as 1.42.

Take A33G A78G C81U: the self-cleavage was determined as 0.11.

On to A33G G65U A95G, for which the self-cleavage turned out to be 0.73.

A33U U72A U102C: the self-cleavage was determined as 0.26.

With C32U A33G A54G A90G, the self-cleavage came out at 0.99.

Take A33U U38C U102C C107U: the self-cleavage turned out to be 0.03.

Regarding G31C A68G U70C A96G, the self-cleavage turned out to be 0.21.

Consider C34U U38C U130C, for which the self-cleavage worked out at 0.95.

Consider C35U U57A U103C A110G, for which the self-cleavage is 0.05.

Regarding A36G A69G U120C, the self-cleavage amounted to 0.44.

Consider A33G A55G A66U A92G U97A, for which the self-cleavage turned out to be 0.44.

With A36U A47G A89G, the self-cleavage was 1.51.

For the variant A36G U37C A116G, the self-cleavage stood at 1.14.

Take A33C U37C A59G: the self-cleavage came out at 1.02.

In the case of A33G A51G A69G A78G, the self-cleavage came out at 0.29.

For the variant A33G A60C A67G A118U, the self-cleavage was 0.21.

A36G U39C A56G A78G U131C: the self-cleavage was 0.37.

On to A36G U72A A94G A116U, for which the self-cleavage is 0.1.

For the variant A33G A56G A95G, the self-cleavage amounted to 1.64.

As for A33C C45U A95U A96G U132C, the self-cleavage was 0.44.

With A33G A62U U97C, the self-cleavage was found to be 1.13.

A36C U43C U49C: the self-cleavage was determined as 1.76.

Consider A33G G74A A114G, for which the self-cleavage was 0.03.

With A33G A82G A94U A117U, the self-cleavage stood at 0.26.

Turning to C34U A54G A92G A117G U130C, the self-cleavage is 1.04.

Turning to A36U A47U A66G A129U, the self-cleavage is 0.12.

In the case of C32U A96G U103C U133A, the self-cleavage turned out to be 0.66.

For the variant C35U A62U U127A, the self-cleavage is 1.52.

For the variant A33G U38C U49C A69G, the self-cleavage is 0.51.

In the case of C35A A54G A55G A62U G115A, the self-cleavage is 0.09.

As for A33U A66U A116U, the self-cleavage came to 0.03.

Consider A36G U37A A59G U102C, for which the self-cleavage worked out at 1.3.

On to C32U A110G A114G, for which the self-cleavage stood at 0.07.

As to A33G G50U G58U U122C U127C U131C, the self-cleavage amounted to 0.34.

For C34U A54G U57C U100C, the self-cleavage worked out at 1.17.

Turning to A33U U43A A54G A90G, the self-cleavage was determined as 0.95.

C32U A110G A129G: the self-cleavage turned out to be 0.09.

In the case of A33G U37G A54G U72C, the self-cleavage worked out at 0.29.

Consider A33U U49A A56G, for which the self-cleavage amounted to 1.73.

Take A33G A78U G84A: the self-cleavage came to 0.18.

For A33G U72A A98G U108C, the self-cleavage was 0.01.

Consider A36C U57C A92G, for which the self-cleavage stood at 0.63.

Take A36G U49G A55C: the self-cleavage amounted to 1.02.

On to C34G U37A A51U A116G, for which the self-cleavage came out at 0.65.

Regarding A36G A69G C81A C85U U100C U122C, the self-cleavage is 0.53.

Take A36G A60G A111G: the self-cleavage turned out to be 0.02.

With A33U A36G C112U A129U, the self-cleavage came to 0.

On to C35G A63G A89G, for which the self-cleavage amounted to 0.87.

For A36C A116G U130C, the self-cleavage was found to be 0.76.

Regarding C32U A63U A68G, the self-cleavage came out at 0.53.

Regarding C32U A33G A60G A117G, the self-cleavage is 1.85.

As to A36C U37A U49C C61U A140U, the self-cleavage came to 2.3.

In the case of A33G U70C A95G, the self-cleavage was found to be 0.78.

Take A33G A78U A89G A135G: the self-cleavage was found to be 0.12.

With C32U A69G U124C, the self-cleavage was 0.85.

As for A33G A63U A117G, the self-cleavage was determined as 0.43.

As to A33U A54U A68C C77U U108C A111G, the self-cleavage was 0.

Consider A33G A69G A82G A111U, for which the self-cleavage came out at 0.02.

Consider A33G A66G A82U A86U A116U, for which the self-cleavage was determined as 0.03.

Consider A33G A51G A68G A91G A92G, for which the self-cleavage was 0.29.

Take A36G A89U U103C G137A A140G: the self-cleavage came to 1.62.

As to A33U A52G A95G, the self-cleavage amounted to 2.2.

With A36G A66U A78U, the self-cleavage worked out at 0.76.

In the case of A33U A68G U139C, the self-cleavage is 1.39.

As to A33G A60G A114G U130C, the self-cleavage amounted to 0.11.

Consider G31U C40U U57C A60G A90G A116G A129G, for which the self-cleavage was 0.12.

On to A33G A36G U72C A117G, for which the self-cleavage amounted to 0.26.

Regarding G31A A56G A78G U131G U132G U139C, the self-cleavage amounted to 0.02.

With C34G U39A A54G A60C A92G, the self-cleavage worked out at 1.59.

With C34U U72A U87A A110G, the self-cleavage was 0.

With A33G U49C A56G A60U, the self-cleavage stood at 0.27.

Take C35A U108C A140G: the self-cleavage came to 0.02.

A36C G104A A126G: the self-cleavage stood at 0.

For the variant C34U U102C A117G, the self-cleavage turned out to be 2.74.

These data come from the RNAGym collection of RNA variant scans (doi:10.7554/elife.90254).
